# The other results are listed elsewhere or left out.
# Test system: PfSIP2 AP2 domain 1 (GST-tagged)
# Test: gcPBM binding intensity (ln(normalized median fluorescence intensity)); higher = stronger DNA binding
# Method in brief: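 Probes on an Agilent 4 × 180k array were primer-extended, double-stranded and 36 bp long, taken from intergenic genomic regions, with negative controls added. GST-tagged P. falciparum DNA-binding domains from E. coli, about 25 μg on average, were applied to the array for 1 h in 1× PBS containing 1% milk, 0.2 mg/ml BSA, 0.5% salmon testes DNA and 0.03% Triton X-100. Binding intensity, obtained after Alexa488 anti-GST antibody detection and a 488 nm scan, is the highest Masliner-normalised natural-log median intensity across replicate spots of either probe orientation.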
row,Sequence,gcPBM binding intensity (ln)
1,ATACACACTTAAAAAAGTACTTAACTACATGAATTG [XGTACX_site1203],7.13
2,ATATTATATATAAAATGTACATTTAAAAATATTATA [XGTACX_site889],7.05
3,TTTTTTTTTTTTTAAACATGCATAATAAATATAATA [TGCATGCA_site265],7.05
4,TTTTTTATTTTGTGCACACACATAAAAATATATATA [CACACA_site761],9.42
5,TTGTTTTCTTATTATTACTACAATACTTAAGTCAGA [TGCATGCA_negctrl_site184],7.02
6,TAATCATAACTTGATACGCACACGTTATATAAATAA [CACACA_site1579],7.02
7,TATTTATTTATGGACACACATACAAATCTTCCAGAC [CACACA_site942],7.14
8,TTTTGTTGGATACAAAAATTACAAATTATTTAAAAA [TGCATGCA_negctrl_site532],6.69
9,GAATACATAATAACATGTACACACATTCTTCTATAA [XGTACX_site8725],7.04
10,TATATATATAGAAATGCATGTTAATAAAAGTTATAA [TGCATGCA_site947],8.13
11,TATCATAAAAAATATACACACAAAGGATATTTATAT [CACACA_site6841],7
12,TATGAACACCAACACACACACAAAAAAAAAAAAAAA [CACACA_site2013],7.3
13,AAAAAAAAATCAAAATGTACTTATTTTTATAATAAT [XGTACX_site4712],6.89
14,TAATTATGCCAACACACACACACACCCAACTAAAAA [CACACA_site8823],7.32
15,AACATCAATTTATTTTCTTACATTATACGATTCATG [CACACA_negctrl_site1300],6.89
16,ATGATGTGCAAGAGTAGTACACAATTTTGGGTTTAT [XGTACX_site501],7.73
17,AAACATAAGAAACACACACACATATATATATATATA [CACACA_site3642],9.32
18,ATTCTTATAACAAGAAGTACAAATATATGTATATAT [XGTACX_site4528],7.17
19,TTTTTTTTTAAGATGAAGATCAATATATAAATATAT [CACACA_negctrl_site1538],6.72
20,AGAATATCAAAATAAAGTACATTTATTATATATATG [XGTACX_site7100],7.15
21,TTTTCTCTCAAAAAATGTACATAATATATATATTTT [XGTACX_site4861],7.1
22,AAAAAAAAAAAACATACACACATACATACCTATATA [CACACA_site6575],6.91

row,Sequence,gcPBM binding intensity (ln)
1,CGTATATATAAATACACACACATATATATCTGTAAA [CACACA_site4272],7.14
2,TTAATTTATTTATGCACACATATATAATTACCCATA [CACACA_site682],7.53
3,AATTAAATTACTTATACACACATAAAATGGGTGTAT [CACACA_site4703],6.77
4,AAAAAAAAAAAAAAGCGTACAAATAAAATATATTTA [XGTACX_site7195],7.21
5,TAAATGTCCTTATTTGCACACACACCCATAAGAAAT [CACACA_site3185],7.38
6,CCTTTTTTGTTTTATGCACACCATATAACCAAGGCT [CACACA_site7893],7.84
7,TATATATAAAAATATACACACACAAATGTATATATA [CACACA_site7956],6.87
8,ATGTAATGAAACATTGCACACATATAATAATATAAT [CACACA_site8402],7.15
9,TTTTTATATGCGTATTGTACATTATACATATATATA [XGTACX_site6786],7.35
10,TTTACATTTATGTGCACACATTCCATTTGAAAGTAA [CACACA_site1953],9.2
11,AATATTTTTTTTTAAACATGCATATTTGCATTACCC [TGCATGCA_site437],6.99
12,TGTATATATTTTAATAGTACTCATATATATATATAT [XGTACX_site7216],9.43
13,ATAACTTTCTATACATGTACACATATATGGTATTTT [XGTACX_site7535],7.3
14,ATAAATTTTTTATGAACACACAAATACACCCACTCA [CACACA_site5465],7.41
15,CTTATAAAAAAAATTGCACACATATTATACAGGACG [CACACA_site8133],7.5
16,ATTGTGTTGACGGGTGACCCTTCCAGAGAAATAGAA [CACACA_negctrl_site1362],6.97
17,TTTTTTTTAATGAGAAGTACGGTCTTTCAATGTCTT [XGTACX_site6773],6.76
18,CATTAACAAATAAATGCACACATATATATAAATAAT [CACACA_site7892],7.22
19,AATTTATTAGATAGATGTACATTTTAATAAAAGTAG [XGTACX_site6819],7.19
20,TAAAAATTAAAACTGGGTACAAATTTATAGATAGCC [XGTACX_site8075],7.06
21,TCCCCTTAATTTAAAACACACAAACAAATAAGTTAG [CACACA_site5973],6.91
22,ATATGTTTTTTTTTTTTTTTTTAATTTGTCATAAAT [CACACA_negctrl_site1208],7.02

row,Sequence,gcPBM binding intensity (ln)
1,TCTTTCAATATTAATGCATGTTAATAATAAATTTTA [TGCATGCA_site448],6.89
2,TGAACAATATATAATAGTACATATTTATTTTTTTCT [XGTACX_site4256],6.72
3,TAAAGATGAAATATCACACATATATAAATATATAAA [CACACA_site4580],6.69
4,ATATAAATAAATATATGTACACACACAAATATATAC [XGTACX_site3950],7.22
5,TCTTTCTTATTTTAATGATATTTATTCATTCCAGTT [CACACA_negctrl_site1679],6.82
6,ACTTTTACACTTTGATTGCACTACTAAACCAGTTCA,8.63
7,AGAATTATTCTAAAAACACACAATACAAAAGTGCAT [CACACA_site3004],7.58
8,ATAAAAAAAAATATTTGTACACATATTTATATATTA [XGTACX_site8147],6.98
9,AAAAAACACGCGCACACACACACACGCGCCCACATA [CACACA_site7106],7.16
10,AATACTAAAACCCATACACACACATATATATAGTAC [CACACA_site9041],7.32
11,TAATAATTACAAAGAAGTACATAAAAAAAAATTTAT [XGTACX_site4684],7.06
12,CTATATATATATTTCAGTACATATTAAGAATATATA [XGTACX_site4860],6.88
13,TATATAAATATATACACACATACATACATACATATA [CACACA_site3835],7.1
14,TTCTAATAAATGTGTTGTACACCTTTAGCAACTATT [XGTACX_site3235],7.01
15,TATATATATTTATGCACACAAAATATATTATATAAT [CACACA_site5955],7.55
16,AGGAAAAAAGAAAAAACACACATAAATATTTATATA [CACACA_site7446],6.82
17,TATACATCATTTTTCAACAACAAAAAAAAAAAAAAT [CACACA_negctrl_site1185],7.05
18,ATATATATAAATACAACACACATGTAATATATAAAT [CACACA_site5766],7.54
19,ACGTAAAATAGGGACGCATGCACAAATATTTTTAAA [TGCATGCA_site336],7.09
20,TAAATACTTCGTAAAACACACAAGTAGAAAAAAAAA [CACACA_site360],6.9
21,ATTAATTATATATATACACACACATACACCCAAATA [CACACA_site9126],7.39
22,AAAAATATAATATATGCACACATACATACATATATA [CACACA_site7915],7.07

row,Sequence,gcPBM binding intensity (ln)
1,ATAATTAGTTCAATTTTTTTTTTTTTTTTTTTTTTT [CACACA_negctrl_site1371],8.44
2,TTATTTATTTATTGTTGTACACAAAATGATTCTTAA [XGTACX_site6480],7.37
3,AAACAAAACAAAACATGTACACATTATATATATATA [XGTACX_site3374],9.55
4,AAATAAAATTATAATACATGCATACATACATATATA [TGCATGCA_site69],6.87
5,TATAAATACATACGTACACACAAATATTAAAATATA [CACACA_site5129],7.35
6,ATGTTACTCAGACACACACACATAAAAAAACAAAAA [CACACA_site3249],7.31
7,TGTGTTAATATATGAAGTACACAATACACACTAATT [XGTACX_site5469],7.23
8,TAATATCATTTATGGGGTACCTCCTATTCTTATTTA [XGTACX_site1839],6.69
9,CGAACTGCACTTTTTAGTACTTAATAATTATTTTTT [XGTACX_site2446],8.47
10,TCATATGTTAAATGATGTACATTTAATATAAATAAA [XGTACX_site900],6.84
11,AAAAAAAACATCCTCACACATATATATATATATATA [CACACA_site5166],9.26
12,AATAAAGGAAATAAATAATTTATTTTGTAAAATATG [CACACA_negctrl_site97],6.99
13,ATATATATGAATACATGTACGTATTTGTCTATGTAT [XGTACX_site8306],7.07
14,CAATGTTAACATATTACACACATATGTATTTATAAT [CACACA_site5512],7.09
15,GCATATATTATATATTTATTTATTTTTTTTTTTTAA [GTGCAC_negctrl_site193],6.89
16,TAAATTACATGAAATTGTACATGAATATTAAATATA [XGTACX_site3909],6.92
17,ATATATACAAAGGATTAACACACATATTATTATATA [CACACA_site8563],6.95
18,TTCGTTATAATTGAATTTACAATATGCTTTATAATG [XGTACX_negctrl_site238],6.78
19,AAAATATTTATATTTACACACACATAATACATATAT [CACACA_site32],7.01
20,GTGTACAGTTTTTGCACACATATAAATAAAAAAAAG [CACACA_site3599],7.48
21,TACATATTTTTTATGTGTACATATTTTTTATGTGTG [XGTACX_site444],7.32
22,TTCTTTTTTCTTTATGGTACGTGTAATATATATCAA [XGTACX_site7960],7.57

# From the supplement of paper PMC11417369
